Source: the supplement of paper PMC4604168 (melanoma cell lines)
The list shows a part of the results. Most values come without repeats; read them as rough.

Assays:
Experiment in all cases: cell count relative to DMSO control; melanoma cells; higher = more viable cells
Details in all cases: library dose: low library concentration; 72 h
MZ2-MEL = system: MZ2-MEL
MeWo = system: MeWo
RPMI7951 = system: RPMI7951
RVH-421 = system: RVH-421
SkMel28 = system: SkMel28
SkMel2 = system: SkMel2
SkMel30 = system: SkMel30
SkMel5 = system: SkMel5
UACC257 = system: UACC257
UACC62 = system: UACC62
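Note: cell number obtained by counting DAPI-stained nuclei in high-throughput microscope images with image analysis software, screen run in 1,536-well plates.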

Compound | cell count (MZ2-MEL) [%] | cell count (MeWo) [%] | cell count (RPMI7951) [%] | cell count (RVH-421) [%] | cell count (SkMel28) [%] | cell count (SkMel2) [%] | cell count (SkMel30) [%] | cell count (SkMel5) [%] | cell count (UACC257) [%] | cell count (UACC62) [%]
C[C@]1(O)C[C@@H](c2nc(-c3ccc4ccc(-c5ccccc5)nc4c3)c3c(N)nccn32)C1 + c1cc(-c2cnn3cc(-c4ccc(OCCN5CCCCC5)cc4)cnc23)ccn1 [Dorsomorphin] (first compound 0.4 µM, partner dose 0.4 µM) | 92 | 91.9 | 102 | 89.5 | 89.1 | 94.3 | 96.9 | 61.8 | 82.9 | 101
C[C@]1(O)C[C@@H](c2nc(-c3ccc4ccc(-c5ccccc5)nc4c3)c3c(N)nccn32)C1 + COc1ccc(COc2ccc(Cc3cnc(N)nc3N)cc2OC)cc1 [GW2580] (first compound 0.4 µM, partner dose 1 µM) | 97.4 | 87.9 | 108 | 9.45 | 92.7 | 96.1 | 101 | 87.4 | 76.2 | 81.8
C[C@]1(O)C[C@@H](c2nc(-c3ccc4ccc(-c5ccccc5)nc4c3)c3c(N)nccn32)C1 + O=c1cc(-c2cccc3c2Sc2ccccc2S3)oc(N2CCOCC2)c1 [KU55933] (first compound 0.4 µM, partner dose 1 µM) | 95 | 94.1 | 87.5 | 106 | 82.8 | 99.5 | 105 | 88.3 | 73.6 | 106
Cn1cnc2c(F)c(Nc3ccc(Br)cc3Cl)c(C(=O)NOCCO)cc21 [selumetinib] + Cc1cc(N2CCOCC2)cc2[nH]c(-c3c(NC[C@@H](O)c4cccc(Cl)c4)cc[nH]c3=O)nc12 [BMS536924] (first compound 0.015 µM, partner dose 0.2 µM) | 75.2 | 80.9 | 123 | 89.6 | 90.4 | 61 | 49.2 | 104 | 77 | 64.9
CCN(CC)CCNC(=O)c1c(C)[nH]c(/C=C2\C(=O)Nc3ccc(F)cc32)c1C [sunitinib] + COc1cc2ncnc(Nc3ccc(Oc4ccccc4)cc3)c2cc1OC [SrcI1] (first compound 0.4 µM, partner dose 2 µM) | 103 | 76 | 106 | 99.8 | 96.5 | 123 | 89.5 | 96 | 103 | 101
COc1cc([C@@H]2c3cc4c(cc3[C@@H](O[C@@H]3O[C@@H]5CO[C@@H](C)O[C@H]5[C@H](O)[C@H]3O)[C@H]3COC(=O)[C@H]23)OCO4)cc(OC)c1O [etoposide] + CN(C)S(=O)(=O)c1ccc2c(c1)/C(=C/c1cc3c([nH]1)CCCC3)C(=O)N2 [SU6656] (first compound 0.02 µM, partner dose 0.4 µM) | 90.5 | 94.6 | 104 | 75 | 91.4 | 93.2 | 94.7 | 99.2 | 81.2 | 80.5
COc1cc([C@@H]2c3cc4c(cc3[C@@H](O[C@@H]3O[C@@H]5CO[C@@H](C)O[C@H]5[C@H](O)[C@H]3O)[C@H]3COC(=O)[C@H]23)OCO4)cc(OC)c1O [etoposide] + COc1ccc(COc2ccc(Cc3cnc(N)nc3N)cc2OC)cc1 [GW2580] (first compound 0.02 µM, partner dose 1 µM) | 97.2 | 99.7 | 97.7 | 94.5 | 102 | 109 | 111 | 95.3 | 80.7 | 91
Cn1cnc2c(F)c(Nc3ccc(Br)cc3Cl)c(C(=O)NOCCO)cc21 [selumetinib] + N#Cc1c(O)c2c(-c3ccc(-c4ccccc4O)cc3)csc2[nH]c1=O [A769662] (first compound 0.015 µM, partner dose 2 µM) | 111 | 96.2 | 102 | 92.8 | 85 | 78 | 66.2 | 122 | 107 | 71.8
COc1cc([C@@H]2c3cc4c(cc3[C@@H](O[C@@H]3O[C@@H]5CO[C@@H](C)O[C@H]5[C@H](O)[C@H]3O)[C@H]3COC(=O)[C@H]23)OCO4)cc(OC)c1O [etoposide] + COc1cc2ncnc(Nc3ccc(Oc4ccccc4)cc3)c2cc1OC [SrcI1] (first compound 0.02 µM, partner dose 2 µM) | 90.3 | 81.6 | 94.1 | 130 | 92.7 | 93.8 | 80.9 | 100 | 114 | 87.1
Cn1cnc2c(F)c(Nc3ccc(Br)cc3Cl)c(C(=O)NOCCO)cc21 [selumetinib] + C[C@@H]1CCN(C(=O)CC#N)C[C@@H]1N(C)c1ncnc2[nH]ccc12 [CP690550] (first compound 0.015 µM, partner dose 1 µM) | 84.5 | 99.2 | 97.9 | 80.5 | 81.9 | 90 | 77 | 112 | 89.6 | 65.6
Cn1cnc2c(F)c(Nc3ccc(Br)cc3Cl)c(C(=O)NOCCO)cc21 [selumetinib] + CCN(CC)CCCCNc1ncc2cc(-c3cc(OC)cc(OC)c3)c(NC(=O)NC(C)(C)C)nc2n1 [PD173074] (first compound 0.015 µM, partner dose 0.1 µM) | 94.9 | 95.1 | 88.4 | 108 | 92.5 | 68.3 | 67.9 | 105 | 102 | 83.5
CCN(CC)CCNC(=O)c1c(C)[nH]c(/C=C2\C(=O)Nc3ccc(F)cc32)c1C [sunitinib] + CN(C)S(=O)(=O)c1ccc2c(c1)/C(=C/c1cc3c([nH]1)CCCC3)C(=O)N2 [SU6656] (first compound 0.4 µM, partner dose 0.4 µM) | 105 | 91 | 103 | 106 | 66.4 | 95.7 | 92 | 94 | 88.2 | 94.2
COc1cc([C@@H]2c3cc4c(cc3[C@@H](O[C@@H]3O[C@@H]5CO[C@@H](C)O[C@H]5[C@H](O)[C@H]3O)[C@H]3COC(=O)[C@H]23)OCO4)cc(OC)c1O [etoposide] + Cc1ccc(NC(=O)c2cccc(N(C)C)c2)cc1NC(=O)c1ccc(O)cc1 [ZM336372] (first compound 0.02 µM, partner dose 2 µM) | 72.6 | 97.1 | 87.1 | 92.8 | 97.5 | 96.5 | 96.2 | 103 | 103 | 85.1
CCN(CC)CCNC(=O)c1c(C)[nH]c(/C=C2\C(=O)Nc3ccc(F)cc32)c1C [sunitinib] + CC(C)(C)c1cnc(CSc2cnc(NC(=O)C3CCNCC3)s2)o1 [SNS-032] (first compound 0.4 µM, partner dose 0.01 µM) | 104 | 74.7 | 108 | 102 | 85.3 | 99.4 | 72.8 | 101 | 58.3 | 61.3
C[C@]1(O)C[C@@H](c2nc(-c3ccc4ccc(-c5ccccc5)nc4c3)c3c(N)nccn32)C1 + C=CCn1c(=O)c2cnc(Nc3ccc(N4CCN(C)CC4)cc3)nc2n1-c1cccc(C(C)(C)O)n1 [MK1775] (first compound 0.4 µM, partner dose 0.02 µM) | 95.3 | 85.7 | 110 | 100 | 74.6 | 80.9 | 62.4 | 83.8 | 84.5 | 78
Cn1cnc2c(F)c(Nc3ccc(Br)cc3Cl)c(C(=O)NOCCO)cc21 [selumetinib] + OCc1c[nH]c2ccccc12 [Indole-3-carbinol] (first compound 0.015 µM, partner dose 0.8 µM) | 87.2 | 85.5 | 98.7 | 67.5 | 95.4 | 72.5 | 50.3 | – | – | 62.7
COc1cc([C@@H]2c3cc4c(cc3[C@@H](O[C@@H]3O[C@@H]5CO[C@@H](C)O[C@H]5[C@H](O)[C@H]3O)[C@H]3COC(=O)[C@H]23)OCO4)cc(OC)c1O [etoposide] + O=C(Nc1cccc(Cl)c1)Nc1ncc(CCNc2ncnc3ccsc23)s1 [SNS314] (first compound 0.02 µM, partner dose 0.0008 µM) | 95.2 | 104 | 97.2 | 73.4 | 70.2 | 98.2 | 95.7 | 94.6 | 59.9 | 76.1
CCN(CC)CCNC(=O)c1c(C)[nH]c(/C=C2\C(=O)Nc3ccc(F)cc32)c1C [sunitinib] + Cc1cc(N2CCOCC2)cc2[nH]c(-c3c(NC[C@@H](O)c4cccc(Cl)c4)cc[nH]c3=O)nc12 [BMS536924] (first compound 0.4 µM, partner dose 0.2 µM) | 113 | 89.5 | 98.5 | 109 | 75.1 | 91.1 | 79 | 89.5 | 72.8 | 87.8
